# The supplement of paper PMC8728848
# This is one part of the list.
# B1: Als3-2 (Candida albicans) (protein)
# chain: KTITGVFNSFNSLTWSNAATYNYKGPGTPTWNAVLGWSLDGTSASPGDTFTLNMPCVFKFTTSQTSVDLTAHGVKYATCQFQAGEEFMTFSTLTCTVSNTLTPSIKALGTVTLPLAFNVGGTGSSVDLEDSKCFTAGTNTVTFNDGGKKISINVDFERSNVDPKGYLTD
# Experiments:
# Experiment in all cases: glycan array binding signal (z-score within array); higher = stronger binding
# Conditions in all cases: glycan notation: IUPAC condensed, linker removed
# [1] = target: Fuc(a1-2)Gal(b1-4)[Fuc(a1-3)]GlcNAc(b1-2)Man(a1-3)[Fuc(a1-2)Gal(b1-4)[Fuc(a1-3)]GlcNAc(b1-2)Man(a1-6)]Man(b1-4)GlcNAc(b1-4)[Fuc(a1-6)]GlcNAc
# Procedure, shortened: (§1)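 Glycan array data were curated from 3228 arrays in the Consortium for Functional Glycomics database and kept only where the protein sequence was available. Glycan names were converted to IUPAC-condensed notation, and columns mapping to the same glycan were averaged. The binding signal is a within-array Z-score, averaged across arrays of the same protein sequence at different concentrations or buffers and across linkers. Negative Z-scores can be read as non-binding.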
# [2] = target: Fuc(a1-2)Gal(b1-4)[Fuc(a1-3)]GlcNAc(b1-2)[Fuc(a1-2)Gal(b1-4)[Fuc(a1-3)]GlcNAc(b1-4)]Man(a1-3)[Fuc(a1-2)Gal(b1-4)[Fuc(a1-3)]GlcNAc(b1-2)Man(a1-6)]Man(b1-4)GlcNAc(b1-4)GlcNAc
# Procedure, shortened: as §1
# [3] = target: Fuc(a1-2)Gal(b1-4)[Fuc(a1-3)]GlcNAc(b1-3)Gal(b1-4)[Fuc(a1-3)]GlcNAc
# Procedure, shortened: as §1
# [4] = target: Fuc(a1-2)Gal(b1-4)[Fuc(a1-3)]GlcNAc(b1-3)Gal(b1-4)[Fuc(a1-3)]GlcNAc(b1-3)Gal(b1-4)[Fuc(a1-3)]GlcNAc
# Procedure, shortened: as §1
# [5] = target: Fuc(a1-2)Gal(b1-4)[Fuc(a1-3)]GlcNAc(b1-3)GalNAc
# Procedure, shortened: as §1
# [6] = target: Fuc(a1-2)Gal(b1-4)[Fuc(a1-3)]GlcNAc(b1-3)[Neu5Ac(a2-6)Gal(b1-4)GlcNAc(b1-6)]Gal(b1-4)Glc
# Procedure, shortened: as §1
# [7] = target: Fuc(a1-2)Gal3S(b1-4)GlcNAc
# Procedure, shortened: as §1
# [8] = target: Fuc(a1-2)Gal6S(b1-3)GlcNAc
# Procedure, shortened: as §1
# [9] = target: Fuc(a1-2)Gal6S(b1-3)GlcNAc6S
# Procedure, shortened: as §1
# Fuc(a1-2)Gal6S(b1-4)Glc = target: Fuc(a1-2)Gal6S(b1-4)Glc
# Procedure, shortened: as §1
# [10] = target: Fuc(a1-2)Gal6S(b1-4)Glc6S
# Procedure, shortened: as §1
# Fuc(a1-2)[Gal(a1-3)]Gal = target: Fuc(a1-2)[Gal(a1-3)]Gal
# Procedure, shortened: as §1
# [11] = target: Fuc(a1-2)[Gal(a1-3)]Gal(b1-3)GalNAc
# Procedure, shortened: as §1
# [12] = target: Fuc(a1-2)[Gal(a1-3)]Gal(b1-3)GalNAc(b1-3)Gal(a1-4)Gal(b1-4)Glc
# Procedure, shortened: as §1
# [13] = target: Fuc(a1-2)[Gal(a1-3)]Gal(b1-3)GlcNAc
# Procedure, shortened: as §1
# [14] = target: Fuc(a1-2)[Gal(a1-3)]Gal(b1-3)GlcNAc(b1-2)Man(a1-3)[Fuc(a1-2)[Gal(a1-3)]Gal(b1-3)GlcNAc(b1-2)Man(a1-6)]Man(b1-4)GlcNAc(b1-4)GlcNAc
# Procedure, shortened: as §1
# [15] = target: Fuc(a1-2)[Gal(a1-3)]Gal(b1-3)GlcNAc(b1-2)Man(a1-3)[Fuc(a1-2)[Gal(a1-3)]Gal(b1-3)GlcNAc(b1-2)Man(a1-6)]Man(b1-4)GlcNAc(b1-4)[Fuc(a1-6)]GlcNAc
# Procedure, shortened: as §1
# [16] = target: Fuc(a1-2)[Gal(a1-3)]Gal(b1-3)GlcNAc(b1-3)GalNAc
# Procedure, shortened: as §1
# [17] = target: Fuc(a1-2)[Gal(a1-3)]Gal(b1-3)GlcNAc(b1-6)GalNAc
# Procedure, shortened: as §1
# [18] = target: Fuc(a1-2)[Gal(a1-3)]Gal(b1-4)Glc
# Procedure, shortened: as §1
# [19] = target: Fuc(a1-2)[Gal(a1-3)]Gal(b1-4)GlcNAc
# Procedure, shortened: as §1
# [20] = target: Fuc(a1-2)[Gal(a1-3)]Gal(b1-4)GlcNAc(b1-2)Man
# Procedure, shortened: as §1
# [21] = target: Fuc(a1-2)[Gal(a1-3)]Gal(b1-4)GlcNAc(b1-2)Man(a1-3)[Fuc(a1-2)[Gal(a1-3)]Gal(b1-4)GlcNAc(b1-2)Man(a1-6)]Man(b1-4)GlcNAc(b1-4)GlcNAc
# Procedure, shortened: as §1
# [22] = target: Fuc(a1-2)[Gal(a1-3)]Gal(b1-4)GlcNAc(b1-2)Man(a1-3)[Fuc(a1-2)[Gal(a1-3)]Gal(b1-4)GlcNAc(b1-2)Man(a1-6)]Man(b1-4)GlcNAc(b1-4)[Fuc(a1-6)]GlcNAc
# Procedure, shortened: as §1
# [23] = target: Fuc(a1-2)[Gal(a1-3)]Gal(b1-4)GlcNAc(b1-3)GalNAc
# Procedure, shortened: as §1
# [24] = target: Fuc(a1-2)[Gal(a1-3)]Gal(b1-4)GlcNAc(b1-3)[Fuc(a1-2)[Gal(a1-3)]Gal(b1-4)GlcNAc(b1-6)]GalNAc
# Procedure, shortened: as §1
# [25] = target: Fuc(a1-2)[Gal(a1-3)]Gal(b1-4)GlcNAc(b1-6)GalNAc
# Procedure, shortened: as §1
# [26] = target: Fuc(a1-2)[Gal(a1-3)]Gal(b1-4)[Fuc(a1-3)]Glc
# Procedure, shortened: as §1
# [27] = target: Fuc(a1-2)[Gal(a1-3)]Gal(b1-4)[Fuc(a1-3)]GlcNAc
# Procedure, shortened: as §1
# [28] = target: Fuc(a1-2)[Gal(a1-3)]Gal(b1-4)[Fuc(a1-3)]GlcNAc(b1-3)GalNAc
# Procedure, shortened: as §1
# [29] = target: Fuc(a1-2)[Gal(a1-4)]Gal(b1-4)GlcNAc
# Procedure, shortened: as §1
# [30] = target: Fuc(a1-2)[GalNAc(a1-3)]Gal
# Procedure, shortened: as §1
# [31] = target: Fuc(a1-2)[GalNAc(a1-3)]Gal(b1-3)GalNAc(a1-3)[Fuc(a1-2)]Gal(b1-4)GlcNAc
# Procedure, shortened: as §1
# [32] = target: Fuc(a1-2)[GalNAc(a1-3)]Gal(b1-3)GalNAc(b1-3)Gal(a1-4)Gal(b1-4)Glc
# Procedure, shortened: as §1
# [33] = target: Fuc(a1-2)[GalNAc(a1-3)]Gal(b1-3)GlcNAc
# Procedure, shortened: as §1
# [34] = target: Fuc(a1-2)[GalNAc(a1-3)]Gal(b1-3)GlcNAc(b1-2)Man(a1-3)[Fuc(a1-2)[GalNAc(a1-3)]Gal(b1-3)GlcNAc(b1-2)Man(a1-6)]Man(b1-4)GlcNAc(b1-4)GlcNAc
# Procedure, shortened: as §1
# [35] = target: Fuc(a1-2)[GalNAc(a1-3)]Gal(b1-3)GlcNAc(b1-2)Man(a1-3)[Fuc(a1-2)[GalNAc(a1-3)]Gal(b1-3)GlcNAc(b1-2)Man(a1-6)]Man(b1-4)GlcNAc(b1-4)[Fuc(a1-6)]GlcNAc
# Procedure, shortened: as §1
# [36] = target: Fuc(a1-2)[GalNAc(a1-3)]Gal(b1-3)GlcNAc(b1-3)GalNAc
# Procedure, shortened: as §1
binder,measurement,setting,value
B1,glycan array binding signal (z-score),[1],0.334
same,glycan array binding signal (z-score),[2],0.327
same,glycan array binding signal (z-score),[3],-0.615
same,glycan array binding signal (z-score),[4],-0.635
same,glycan array binding signal (z-score),[5],0.952
same,glycan array binding signal (z-score),[6],-0.606
same,glycan array binding signal (z-score),[7],0.7
same,glycan array binding signal (z-score),[8],-0.086
same,glycan array binding signal (z-score),[9],-0.47
same,glycan array binding signal (z-score),Fuc(a1-2)Gal6S(b1-4)Glc,-0.23
same,glycan array binding signal (z-score),[10],-0.311
same,glycan array binding signal (z-score),Fuc(a1-2)[Gal(a1-3)]Gal,0.677
same,glycan array binding signal (z-score),[11],0.234
same,glycan array binding signal (z-score),[12],0.038
same,glycan array binding signal (z-score),[13],-0.182
same,glycan array binding signal (z-score),[14],-0.563
same,glycan array binding signal (z-score),[15],-0.485
same,glycan array binding signal (z-score),[16],-0.68
same,glycan array binding signal (z-score),[17],-0.489
same,glycan array binding signal (z-score),[18],-0.338
same,glycan array binding signal (z-score),[19],-0.617
same,glycan array binding signal (z-score),[20],-0.167
same,glycan array binding signal (z-score),[21],0.294
same,glycan array binding signal (z-score),[22],-0.619
same,glycan array binding signal (z-score),[23],-0.717
same,glycan array binding signal (z-score),[24],-0.51
same,glycan array binding signal (z-score),[25],-0.42
same,glycan array binding signal (z-score),[26],-0.655
same,glycan array binding signal (z-score),[27],-0.289
same,glycan array binding signal (z-score),[28],-0.426
same,glycan array binding signal (z-score),[29],0.706
same,glycan array binding signal (z-score),[30],-0.387
same,glycan array binding signal (z-score),[31],-0.525
same,glycan array binding signal (z-score),[32],-0.184
same,glycan array binding signal (z-score),[33],-0.507
same,glycan array binding signal (z-score),[34],-0.487
same,glycan array binding signal (z-score),[35],-0.619
same,glycan array binding signal (z-score),[36],-0.233
